In article PMC2270309:

Experiments:
[1] = target: Mad2^WT (wild-type human Mad2, untagged) (human) (UniProt Q13257); experiment: SEC; untagged 13C-labelled O-Mad2 incubated with buffer for 30 min at 37 °C, then gel filtration at 4 °C; fractions on Coomassie-stained SDS-PAGE
[2] = target: Mad2^WT (wild-type human Mad2, untagged) (human) (UniProt Q13257); experiment: SEC; gel filtration of the high-salt peak (Q2) of anion exchange chromatography (holds the C-Mad2 conformer)

Mad2^WT (wild-type human Mad2, untagged) (a stretch of the chain, sequence not shown) (natural protein; other documents disagree on this pair)
percent of Mad2 that formed dimers [1]: 40% | stoichiometry N [2]: 2
